In all, about 44,000 compounds went through this assay and about 340 (0.77%) were called active. Not shown: some 5% with an inconclusive outcome. Calls follow the shape of the dose curve; as a rule, active = well fitted inhibition curve with a large enough effect; inconclusive = small, poorly fitted or top-dose-only effect; inactive = flat fitted curve, though single readings scatter. Some of the results follow.
Assay: Acumen qHTS Assay for Inhibitors of the mTORC1 Signaling Pathway in MEF (Tsc2-/-, p53-/-) Cells: Sytravon;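 also: plate controls were DMSO for no effect and rapamycin for full effect; nearly all actives have a fitted effect of over 50% in size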
Details: phospho-rpS6 immunofluorescence/PI, 24 h; series mostly up to 38.3 µM; activity change, negative = inhibition: at the top concentration
Outline: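 Cell-based qHTS: Tsc2-/- p53-/- MEF, 24 h cpd, 37 °C; fix/perm, anti-phospho-S6 Alexa-488 + PI; Acumen 488 nm scan; pS6/PI ratio, % positive cells; rapamycin 7.5 nM = inhibition ref; PI count = viability.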

Activity change, negative = inhibition, inactive:
Cc1cc(C)cc(-n2ccnc2SCC(=O)Nc2ccc(C)cc2C)c1 -3.33%, CC(=O)c1ccc(N2CCN(c3nc4c(S(=O)(=O)c5ccc(C)c(C)c5)nnn4c4ccc(Cl)cc34)CC2)cc1 -0.789%, CCC(=O)N1CCc2cc(Br)cc(S(=O)(=O)CCC(=O)N3CCN(c4ccc(OC)cc4)CC3)c21 3.47%, CCC(C(=O)Nc1cc(OC)ccc1OC)n1c(=O)c(C(F)(F)F)nc2ccccc21 (stereo unspecified) -7.7%, CCOc1ccc2oc(=O)cc(CN3CCN(Cc4ccc(F)cc4)CC3)c2c1 -5.33%, O=C(CCCn1c(=O)c2ccccc2n(CC(=O)Nc2cccc(Cl)c2)c1=O)NCc1ccc2c(c1)OCO2 -1.75%, CCC(=O)Nc1ccccc1-c1nc2ccccc2n(C(C)C(=O)Nc2cccc(Cl)c2C)c1=O (stereo unspecified) -23.7%, CC(C)c1ccc(Nc2ncnc3c2nc2n3CCCC2)cc1 -10.8%, COc1cc(NC(=O)CNC(=O)Cn2ccc3ccccc3c2=O)cc(OC)c1OC 0%, Cc1ccc(Cc2cnc(NC(=O)C3Cc4ccc(C)cc4C(=O)O3)s2)cc1 (stereo unspecified) 14.2%, COC(=O)c1cnn(-c2ccc(C(=O)Nc3ccc(OC(F)(F)F)cc3)cc2)c1N -1.33%, CCc1ccc(NC(=O)CN2CCSc3ccc(S(=O)(=O)N4CCCC4)cc32)cc1 -0.245%, COc1ccc(C(CNC(=O)c2cccc([N+](=O)[O-])c2)N2CCOCC2)cc1 (stereo unspecified) -4.62%, Cc1ccc(CNC(=O)Cn2c(=O)ccc3cc(S(=O)(=O)N4CCCC4)ccc32)cc1 1.39%, CCOc1ccc(S(=O)(=O)c2cn(C)c3ccccc3c2=O)cc1 2.49%, CCN(C(=O)c1cccn(Cc2ccccc2C)c1=O)c1ccccc1 0.576%, CN(C)c1ccc(NC(=O)CN2C(=O)c3ccccc3Sc3ccc(C(=O)N4CCCC4)cc32)cc1 -2.99%, CCOC(=O)C1CCN(C(=O)Cn2ncc3c4ccccc4n(Cc4ccccc4F)c3c2=O)CC1 -5.15%, Cc1ccc(NC(=O)CN2C(=O)CCn3nc(-c4cccn4C)cc32)c(Cl)c1 -4.67%, Cc1nn(CCCC(=O)NCc2cccc(Cl)c2)c(=O)c2c1sc1ccccc12 0.241%, Cc1nnc(NC(=O)CSc2nnc3c(n2)[nH]c2ccccc23)s1 -8.92%, Cc1cccc(N2CCN(CCCNC(=O)c3sc4ncccc4c3-n3cccc3)CC2C)c1 (stereo unspecified) -8.93%, O=c1n(Cc2ccc(F)cc2)nc2n1-c1cc(Cl)ccc1OC2 -5.8%, Cc1ccc(F)cc1NC(=O)c1ccc(Cn2nc(N3CCN(c4ccccc4)CC3)ccc2=O)o1 -4.91%, CCOc1ccccc1CNC(=O)c1cnc2c(-c3ccc(OCC)c(OCC)c3)c(C)nn2c1C -2.88%, COc1ccc(NC(=O)C2CCN(c3nc4ccccc4nc3C(F)(F)F)CC2)cc1 4.54%

— PubChem BioAssay AID493208 (National Center for Advancing Translational Sciences (NCATS), 2011)
